# According to the supplement of paper PMC11417369:
# ± gives the standard deviation of the averaged measurements. The list shows a part of the results.
# System: PfAP2-EXP AP2 domain (GST-tagged)
# Experiment: gcPBM binding intensity (ln(normalized median fluorescence intensity)); higher = stronger DNA binding
# Outline: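 Using an Agilent 4 × 180k array, primer-extended double-stranded 36-bp intergenic genomic probes and negative controls were exposed for 1 h to GST-fused P. falciparum DNA-binding domains expressed in E. coli. Binding was carried out in 1× PBS with 1% milk, 0.2 mg/ml BSA, 0.5% salmon testes DNA and 0.03% Triton X-100, and protein was detected with Alexa488 anti-GST antibody and a 488 nm scan. Binding intensity is the highest Masliner-normalised natural-log median intensity across replicate spots of either probe orientation.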
row,Sequence,gcPBM binding intensity (ln)
1,TTTTGAGAATATATGGGTACAAATAAATAAAAATAT [XGTACX_site1933],8.89 ± 0.4
2,AAATAATATTGAAAAGTGCATATTTTTGTTGATATA,8.48 ± 0.37
3,AAATTTAAATAATGTGCGCATCTTAATATATATAAG [GTGCAC_site9890],8.78 ± 0.38
4,TCTTATAACAAAAAAAAATAAAAAATAAAACTATAT [GTGCAC_negctrl_site11],8.43 ± 0.4
5,CATATAAATAGACACACACACACATATAAATAAATA [CACACA_site7156],8.76 ± 0.44
6,TTAGCAACTATTACTACACACATTTTTATATAATTT [CACACA_site1372],8.51 ± 0.46
7,CATATAATATATCAATGTACATATATATTTTATAAA [XGTACX_site5901],8.39 ± 0.36
8,TATAAATCAATATGTACACACATATACATGTTGAAT [CACACA_site7460],8.34 ± 0.3
9,TAATAAAAAAAGTGCACACACATAATATATATATAT [CACACA_site3340],9.74 ± 0.28
10,ATTATATACATATATATTGTATATACTATACATATG [XGTACX_negctrl_site545],8.44 ± 0.4
11,ATTGTCAAAACACGCACACACATATACATAATAACA [CACACA_site1742],8.79 ± 0.56
12,ATATATACCTATAACACACACATATTTATATTTATA [CACACA_site7257],8.61 ± 0.47
13,AAAAAACATACATACACACACATAAATATATATATT [CACACA_site2699],8.56 ± 0.55
14,TCTTATTTAAAAATAGCACACATTATATATATATAT [CACACA_site8916],10 ± 0.15
15,ATATATATATAAAGGAGTACATACATTAAAAAAAAA [XGTACX_site1095],9.505 ± 0.007
16,TCCTTGTTTGGTTTTTTTTTTTCTTCTTTTTTTTTT [CACACA_negctrl_site1355],8.62 ± 0.56
17,TTAAATGTTATATATTGTACATATAATATATGTATT [XGTACX_site1492],8.27 ± 0.19
18,TATGAAACGATATATGTGCACATGAGGGAATATAGA [GTGCAC_site9611],9.39 ± 0.3
19,ACACATACACATTAGGTGCACATAATTCAATATTAC [GTGCAC_site9862],9.09 ± 0.15
20,GATATATAACTTTTAACACACAAAAAAAAAAAAAAT [CACACA_site7653],8.46 ± 0.53
21,AAAGGTTTGCGTTGTGTGCACAAAATAAATATATAA,9.09 ± 0.39
22,TTATGAATATTGATGTATAAAAAAATATATATGTTA [XGTACX_negctrl_site390],8.29 ± 0.49

row,Sequence,gcPBM binding intensity (ln)
1,GAAAATTCATAAAAATGTACTTATTATATTATTTAT [XGTACX_site2169],8.14 ± 0.31
2,TAAAATTATGTAATAACACACATATACAATACATAT [CACACA_site1236],8.61 ± 0.3
3,ATTCTAAATATGTATATACACACTTTTAATATTCAT [CACACA_site4118],8.71 ± 0.4
4,TTTTTTATTTAAAGTAGTACTTTTTAGAAAACAAAA [XGTACX_site6759],8.07 ± 0.34
5,TTATTTTAAATTAACACATGCATAATATATGTATAT [TGCATGCA_site597],8.48 ± 0.23
6,TTTATGAAACAGTGCACACATAAAAATAAATACATA [CACACA_site5631],9.175 ± 0.035
7,AAAAAAATTTTAAAATGTACAAATTTTAATATATAT [XGTACX_site7628],8.55 ± 0.26
8,TTTTCAAAAATATACACACACATAAATATATGTATA [CACACA_site777],8.22 ± 0.34
9,CCATGTCAAACATTTGCACACAAAAAAATAAAAATT [CACACA_site4546],8.49 ± 0.5
10,AGGTTGAATATATATTTGTGATTATATTATTTTATT [CACACA_negctrl_site778],8.43 ± 0.42
11,TATATATATATATAATGTACAAACTCCTTTATATAT [XGTACX_site4545],10.1 ± 0.3
12,GTTTTTTTTATATATTGTACAAATAATATATTATAT [XGTACX_site29],9.02 ± 0.37
13,TCATTCAAAAAAAATCAACACACAGTTACATAGCTC [CACACA_site8700],8.64 ± 0.52
14,TTTTAAAACTACATTGGTACACAATAAAAAAAAAAA [XGTACX_site2793],8.72 ± 0.49
15,TTTTAAAAAAAAAAAATAAATAAATAAGATATTATC [CACACA_negctrl_site1791],8.22 ± 0.37
16,AAAAAAAAAAAAAAAGCACACATATAAATATGAATA [CACACA_site8391],8.41 ± 0.24
17,TCATATATATTATACACACACATATATAAATATATA [CACACA_site967],8.46 ± 0.45
18,AACACCAAACTAAATGTACACACATACATAAATATA [CACACA_site8298],8.58 ± 0.38
19,AATATAAACACAAACACACACATATATATATATATA [CACACA_site4307],10.1 ± 0.29
20,TTATTTAAACAAATCACACACAAATATAAATACATA [CACACA_site5158],8.61 ± 0.52
21,CATCCAAAAATATTATGTACTAAATTTGGATGTATT [XGTACX_site3954],8.48 ± 0.47
22,TATAAAATTATGTGTACACAAATATAACTTTTCTTT [CACACA_site5554],8.48 ± 0.23
